# In all, about 360,000 compounds went through this assay and about 11,000 (3.1%) were called active. This list was built around the results that the source calls inconclusive (neither active nor inactive); the mix of calls is not that of the screen. The call rests on the fitted dose curve; in most records, active means well fitted inhibition curve with a large enough effect; inconclusive means small, poorly fitted or top-dose-only effect; inactive means no such curve, though single readings can be large or run the other way. No potency is given beside an inconclusive call; the fits are too rough. Some compounds were tested as several samples or in several runs, with calls that do not always agree.
# Target: Schistosoma mansoni thioredoxin glutathione reductase (TGR) (UniProt Q962Y6)
# Experiment: qHTS Assay for the Inhibitors of Schistosoma Mansoni Peroxiredoxins; further: nearly all actives have a fitted effect of over 60% in size
# Conditions: purified TGR, DTNB reduction, TNB absorbance 405 nm; activity change, negative = inhibition: at 114 µM (top of the series) unless noted
# How it was run: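 TGR 20 nM + NADPH 100 uM (dispensed conc.), cpd preinc 15 min RT; start with NADPH (500 uM addition) then DTNB (15 mM addition). Kinetic TNB absorbance, 405 nm filter. Four-parameter Hill fit across titration.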
# On the % scale 0 is the no-effect control and ±100 the full control effect; potency means the concentration at half of the fitted maximal effect; tags describe the fitted curve by direction and shape.
SMILES,"activity change, negative = inhibition",Potency
Cc1ccccc1Cn1c(SCc2ccc(C(=O)NCCc3ccccc3)cc2)nc2ccncc21,inactive: -0.448%,
COc1cccc(-c2n[nH]c3c2C(c2ccccn2)N(C)C3=O)c1 (stereo not drawn),inactive: 0.27%,
CCS(=O)(=O)N1CCC(C(=O)NCCCN2CCCCCC2)CC1,,"inconclusive [inhibitor, partial curve]"
CCc1cc2ccccc2nc1SCC(=O)N1CCN(C(=O)c2ccco2)CC1,,"inconclusive [inhibitor, full curve, poor fit]"
COc1cccc(CNC(=O)CSc2ccc(-c3ccco3)nn2)c1,,active: 8.91 µM
c1ccc(C2=NN(c3ccccc3)CC2)cc1,,active: 5.01 µM
COc1cc(C(=S)N2CCCC2)ccc1OCC(N)=O,,"inconclusive [inhibitor, full curve, poor fit]"
C/C(=C\c1ccccc1)CN1CCN(C(C)C)C(CCO)C1 (stereo not drawn),,"inconclusive [inhibitor, partial curve, poor fit]"
Cc1ccc(NC(=O)Cn2cccc2)cc1Cl,,active: 31.6 µM
O=C(O)c1ccc(S(=O)(=O)N2CCC(Cc3ccccc3)CC2)cc1,inactive: 5.48%,
COC(=O)c1ccc(C)c(NC(=O)CSc2sc3c(O)cc(=O)[nH]c3c2C#N)c1,,"inconclusive [inhibitor, partial curve]"
C=CCCCCCCCC(=O)OC,,active: 50.1 µM
CCCN(Cc1cccs1)C(=O)Nc1ccc(F)c(Cl)c1,inactive: 0.777%,
O=C1c2ccc([N+](=O)[O-])cc2C(=O)N1Cc1cccnc1,,"inconclusive [inhibitor, full curve]"
Cc1c(O)nc(SC2CC(=O)N(c3ccccc3)C2=O)[nH]c1=O (stereo not drawn),,"inconclusive [inhibitor, partial curve]"
COc1cc(OC)cc(-c2c(-c3cccs3)c3cc(-c4ccc5cc[nH]c5c4)ccc3n2C)c1,inactive: -22%,
COCCNC(=S)N/N=C(\C)c1ccccc1OC,,"inconclusive [inhibitor, single point]"
COCCNC(=O)C(=O)NCC(c1cccnc1)N1CCN(c2ccccc2)CC1 (stereo not drawn),,"inconclusive [inhibitor, full curve, poor fit]"
Nn1c(SCC(=O)Nc2ccc(F)cc2F)nnc1-c1cccnc1,inactive: -13.9%,
CN1CC=C2C(C#N)=C(N)C(C#N)(C#N)[C@H](c3cccc(Cl)c3)C2C1 (stereo partly drawn),,"inconclusive [inhibitor, partial curve, poor fit]"
CN(C)c1ccc(CNC(=O)Cn2ccc3cc(S(=O)(=O)N4CCCCCC4)ccc32)cc1,,"inconclusive [inhibitor, single point]"
CCOC(=O)c1c(C)[nH]c(CCC(=O)NCCCN2CCN(c3ccccc3F)CC2)c1C,inactive: -8.66%,
Oc1ccc(Cl)cc1N=Cc1sc2ccccc2c1Cl,,"inconclusive [inhibitor, partial curve]"
O=C(CC1Nc2cccc3cccc(c23)NC1=O)Nc1ccc(F)cc1 (stereo not drawn),,"inconclusive [inhibitor, partial curve]"
CC(C)c1ccc(N(CC(=O)NCCSC(C)(C)C)S(C)(=O)=O)cc1,inactive: -5.95%,

SMILES,"activity change, negative = inhibition",Potency
COc1ccc(CCc2nnc(NS(C)(=O)=O)s2)cc1,,"inconclusive [inhibitor, single point]"
CCCCn1c(N)c(N(CC(C)C)C(=O)CSc2ccc3c(c2)OCCO3)c(=O)[nH]c1=O,,"inconclusive [inhibitor, single point]"
Cc1nc(/N=C(\N)NC(=O)N2c3ccccc3Sc3ccccc32)nc2ccccc12,inactive: -1.03%,
COc1ccc(OCc2cc(C(=O)N3CCCC3)no2)c2ccccc12,,"inconclusive [inhibitor, partial curve]"
CCOC(=O)c1ccc(NC(=O)c2cnc(N3CCCC3)nc2C)cc1,inactive: 6.78%,
O=c1c(C(c2ccc(Br)cc2)c2c(O)nc3n(c2=O)CCS3)c(O)nc2n1CCS2,,"inconclusive [inhibitor, full curve, poor fit]"
CCOC(=O)c1[nH]c2ccccc2c1NC(=O)c1ccc(Br)o1,inactive: -26.2%,
O=C(Nc1n[nH]c(C(F)(F)F)n1)c1cccs1,,"inconclusive [inhibitor, full curve]"
N#C/C(=C\Nc1ccc2c(c1)OCCO2)c1nc(-c2ccccc2)cs1,inactive: -8.5%,
CCC(COC)NC(=O)CCc1nnc(Cc2c[nH]c3ccccc23)o1 (stereo not drawn),,"inconclusive [inhibitor, partial curve, poor fit]"
COc1ccc(Cc2nnc(SCC(=O)NCc3ccco3)o2)cc1,,active: 50.1 µM
COc1cccc(CN(Cc2ccco2)C(c2ccc(F)cc2)c2nnnn2C(C)(C)C)c1 (stereo not drawn),,active: 50.1 µM
COC(=O)C1CCN(C2CC(=O)N(c3cc(C)cc(C)c3)C2=O)CC1 (stereo not drawn),,"inconclusive [inhibitor, partial curve]"
Cc1c(Br)c([N+](=O)[O-])nn1CC(=O)Nc1sc2c(c1C(=O)OC(C)C)CCCC2,inactive: 5.73%,
O=C(NCc1ccc2c(c1)OCO2)c1cc(S(=O)(=O)N2CCCCC2)ccc1F,inactive: 0%,
CC(=O)C(C(c1ccccc1)c1c[nH]c2ccccc12)[N+](=O)[O-] (stereo not drawn),,"inconclusive [inhibitor, partial curve]"
COc1cc(Nc2ccc(S(N)(=O)=O)cc2)c([N+](=O)[O-])nc1[N+](=O)[O-],,active: 20 µM
Cc1ccc(S(=O)(=O)NC(C(=O)Oc2ccc3ccc(=O)oc3c2)c2ccccc2)cc1 (stereo not drawn),,"inconclusive [inhibitor, full curve]"
Cc1sc2ncnc(N3CCC(C(=O)Nc4nc(-c5cccs5)cs4)CC3)c2c1C,inactive: -21.4%,
CN(C)c1ccc(C2CNC(c3ccc(Cl)c([N+](=O)[O-])c3)c3[nH]c4ccccc4c32)cc1 (stereo not drawn),,"inconclusive [inhibitor, partial curve]"
CN1CCc2c(sc3c2C(=O)NC(c2ccc(-c4cccc(Cl)c4)o2)N3)C1 (stereo not drawn),,"inconclusive [inhibitor, partial curve]"
COC(=O)C1=C(c2ccc(-c3ccccc3)c(F)c2)C[C@@H]2CC[C@H]1N2C(=O)N1CCC(O)CC1,inactive: -9.23%,
CCOC(=O)c1[nH]c(C)c(CN(CCc2ccccc2)C(=O)CCC(=O)O)c1C,inactive: 7.16%,
O=c1oc2c(CN3CCOCC3)c(O)c(Cl)cc2c2c1CCCC2,,active: 44.7 µM
COC1(NS(=O)(=O)c2ccc(Br)cc2)C(C)=CC(=O)C=C1C,,"inconclusive [inhibitor, full curve, poor fit]"

SMILES,"activity change, negative = inhibition",Potency
CCCC(=O)Nc1ccc(NC(=O)c2sc3ccccc3c2Cl)cc1,inactive: -17.3%,
CCCCC(CC)CNC(=O)c1ccc2c(c1)OCO2 (stereo not drawn),,"inconclusive [inhibitor, single point]"
CCCCOc1ccc(C(=O)Nc2ccc(OCC(=O)N3CCOCC3)cc2)cc1,,"inconclusive [inhibitor, partial curve, poor fit]"
CCC1(C)N=C(c2ccc3c(c2)OCO3)CC(c2ccccc2O)N1 (stereo not drawn),,"inconclusive [inhibitor, partial curve]"
O=C(CC1N=C2c3ccccc3N=C(SCc3cccc(Cl)c3)N2C1=O)NC1CCCCC1 (stereo not drawn),,"inconclusive [inhibitor, single point]"
Nc1cccc2c1C(=O)N(C(=O)c1ccc(S(=O)(=O)N3CCCCCC3)cc1)C2=O,inactive: -1.95%,
CCCn1c(SCC(=O)N2CCCCC2)nnc1-c1ccco1,,"inconclusive [inhibitor, single point]"
COc1ccc(CS(=O)(=O)CC2(O)CCN(C(=O)c3cccc(C(F)(F)F)c3)CC2)cc1,inactive: 21%,
COc1ccc(C2(c3ccc(OC)cc3)NC(=O)N(CC(=O)N3CCOCC3)C2=O)cc1,inactive: -3.96%,
O=S(=O)(c1cccs1)N1CN(Cc2ccco2)c2nc3ccccc3nc21,,"inconclusive [inhibitor, full curve, poor fit]"
Cc1cccc(C)c1OCc1cc(C(=O)N2CCN(C3CCCC3)CC2)no1,,"inconclusive [inhibitor, full curve, poor fit]"
S=C(NCc1ccncc1)Nc1cccc(Cl)c1,,"inconclusive [inhibitor, partial curve]"
CCOc1ccc(NC(=O)CSc2nccn(-c3ccc4c(c3)OCCO4)c2=O)cc1,inactive: -12.4%,
COc1ccc(-c2oc(=O)c3cc(OC)c(OC)cc3c2/C=C/c2cccc([N+](=O)[O-])c2)cc1,,"inconclusive [inhibitor, partial curve]"
O=C(CCSc1ccc(F)cc1)NNC(=O)c1ccccc1Cl,inactive: -2.51%,
OC1(Cc2ccccc2)CCNCC1,,active: 44.7 µM
O=C(C1CCN(C2CC(=O)N(c3ccc(Cl)cc3)C2=O)CC1)N1CCOCC1 (stereo not drawn),,active: 14.1 µM
COc1cccc(N(CC(=O)NCCSCc2ccco2)S(=O)(=O)c2ccccc2)c1,,"inconclusive [inhibitor, partial curve]"
Cc1ccc(C)c(OCCC(=O)OCC(=O)Nc2ccc(Cl)cn2)c1,inactive: -6.85%,
Cc1csc(=Nc2ccccc2)n1Cc1ccco1,,"inconclusive [inhibitor, partial curve]"
CC(C)(C)OC(=O)N1CCC(c2c(C(=O)N3CCN(C(=O)c4ccco4)CC3)cnn2-c2ccc(Cl)cc2)CC1,inactive: 2.11%,
O=C(CSc1ccc(-c2ccccc2)nn1)N1CCCCC1,inactive: 15.8%,
Cc1cc2ncn(C(=O)N3CCCCCC3)c2cc1C,,"inconclusive [inhibitor, partial curve]"
